Measurements published in paper PMC4336329 (PLoS ONE, 2015).
In all, about 310,000 compounds went through this assay and about 2,200 (0.71%) showed an effect of 50% or more. The effect is printed as a negative number. Some of the results follow.

Biological target: human ether-à-go-go-related gene (hERG) potassium channel (human, UniProt Q12809)
Test: primary screen, population patch clamp on CHO cells stably expressing hERG

human ether-à-go-go-related gene (hERG) potassium channel, sequence (Q12809 whole entry, looked up): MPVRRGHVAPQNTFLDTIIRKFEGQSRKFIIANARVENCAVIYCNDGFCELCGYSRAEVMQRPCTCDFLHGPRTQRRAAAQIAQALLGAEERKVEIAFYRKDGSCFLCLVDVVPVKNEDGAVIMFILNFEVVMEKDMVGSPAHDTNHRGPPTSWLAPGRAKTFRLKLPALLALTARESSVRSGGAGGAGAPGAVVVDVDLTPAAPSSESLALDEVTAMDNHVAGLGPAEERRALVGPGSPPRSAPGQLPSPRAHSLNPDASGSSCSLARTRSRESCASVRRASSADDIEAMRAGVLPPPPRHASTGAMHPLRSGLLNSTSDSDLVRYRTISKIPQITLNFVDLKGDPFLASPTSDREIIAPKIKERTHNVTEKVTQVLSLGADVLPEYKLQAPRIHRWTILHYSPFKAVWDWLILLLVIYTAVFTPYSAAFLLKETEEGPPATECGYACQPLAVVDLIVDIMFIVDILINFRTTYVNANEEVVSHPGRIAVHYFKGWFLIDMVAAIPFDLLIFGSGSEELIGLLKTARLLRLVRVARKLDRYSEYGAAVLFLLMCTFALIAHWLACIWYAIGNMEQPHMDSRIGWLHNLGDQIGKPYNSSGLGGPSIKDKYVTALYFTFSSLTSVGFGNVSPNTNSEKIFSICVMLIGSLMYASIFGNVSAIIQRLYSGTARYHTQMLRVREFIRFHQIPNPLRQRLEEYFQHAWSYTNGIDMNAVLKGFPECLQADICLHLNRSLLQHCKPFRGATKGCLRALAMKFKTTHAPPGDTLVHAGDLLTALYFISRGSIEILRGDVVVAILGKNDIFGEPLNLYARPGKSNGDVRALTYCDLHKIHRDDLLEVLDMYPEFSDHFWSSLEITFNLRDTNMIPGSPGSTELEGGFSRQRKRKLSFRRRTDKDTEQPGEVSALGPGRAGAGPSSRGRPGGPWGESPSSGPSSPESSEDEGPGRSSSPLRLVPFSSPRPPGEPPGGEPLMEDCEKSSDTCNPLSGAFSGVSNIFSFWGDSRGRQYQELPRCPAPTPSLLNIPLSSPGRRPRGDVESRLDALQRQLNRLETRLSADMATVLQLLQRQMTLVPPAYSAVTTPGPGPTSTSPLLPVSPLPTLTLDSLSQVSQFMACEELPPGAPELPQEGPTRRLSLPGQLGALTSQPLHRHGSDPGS

Structure (SMILES) | hERG current change (%, negative = inhibition) at 1uM
CCOC(=O)N1CCC(NC(=O)c2ccc(NC(=O)C3CCCO3)cc2)CC1 (stereo not shown) | 0.967%
COc1cccc(N2C(=O)C3C(C2=O)C3(c2ccccc2)c2ccccc2)c1 (stereo not shown) | 4.91%
O=C(O)C1CCN(S(=O)(=O)c2cccc3nsnc23)CC1 | 8.01%
CC(C)=NOc1nc(N2CCOCC2)nc(N2CCOCC2)n1 | 15%
COc1ccc(Nc2nc(Cl)c(C=O)s2)cc1 | 5.62%
CC(NC(=O)Cc1ccccc1)c1ccccc1 (stereo not shown) | 6.12%
CC(=O)c1cccc(Nc2c([N+](=O)[O-])c(=O)oc3ccccc23)c1 | 13.5%
O=C(NN=C1CCCCC1)c1ccccc1-n1cccc1 | 5.6%
Cn1c(=O)c2c(nc(CN3CCN(c4ccccc4F)CC3)n2CCN2CCOCC2)n(C)c1=O | -5.62%
CCOc1cccc(-c2nnc(SCC(=O)Nc3ccc(OC)c(OC)c3)n2N)c1 | -7.23%
O=C(CSc1nnc(-c2cccs2)o1)NCc1ccco1 | 8.17%
CC1(C(=O)OCC(=O)Nc2nc(-c3ccc(F)c(F)c3)cs2)CC1(Cl)Cl (stereo not shown) | 10.8%
COc1ccc(CCNC(=O)CN(c2ccc(OC)cc2)S(C)(=O)=O)cc1 | 12.9%
COc1ccc(/C=C(/NC(=O)c2ccco2)C(=O)N2CCCCCC2)cc1OC | 15.2%
CCn1cc(/C=C(\NC(=O)c2ccc(OC)cc2)C(=O)N2CCOCC2)c2ccccc21 | 13.3%
CCOC(=O)CC1COc2ccccc2N1C(=O)c1ccc(F)cc1 (stereo not shown) | 0.534%
CC1(c2ccccc2)NC(=O)N(CC(=O)Nc2nc(-c3ccccn3)cs2)C1=O (stereo not shown) | 4.5%
O=C(CN1C(=O)CSC1=O)Nc1ccccc1N1CCOCC1 | 16.9%
CC(C)c1csc(CN2CCC(CCC(=O)NCC3CCCO3)CC2)n1 (stereo not shown) | 9.97%
Cc1ccc(CSc2ccc(C(=O)N3CCOCC3)cc2[N+](=O)[O-])cc1 | 9.61%
CN(C1CCCC1)C1CCN(C(=O)CNC(=O)/C=C/c2ccccc2)CC1 | -14.5%
Cc1ccc(NC(=O)CSc2ncc(-c3ccccc3)n2C(=O)c2ccccc2)cc1 | 7.02%

Structure (SMILES) | hERG current change (%, negative = inhibition) at 1uM
COc1ccc(N=Cc2oc3ccc4ccccc4c3c2O)cc1 | 15.8%
COc1ccc(-c2nnc(SCC(=O)c3ccco3)n2-c2ccccc2)cc1 | 2.74%
Cc1c(NC(=S)NC(=O)Cc2ccccc2)cccc1C(=O)O | -5.67%
CCOC(=O)N1CCN(C(=O)CNC(=O)c2ccc(Br)o2)CC1 | 12.3%
Cc1ccc(NC(=O)c2ccc(NCC3CCCO3)c([N+](=O)[O-])c2)cc1Cl (stereo not shown) | 1.96%
COc1ccc(CCN(C)C(=O)c2cc(-c3ccccc3)nc3ccccc23)cc1OC | 0.166%
COc1cccc(CNC(=O)CN2C(=O)COc3ccc(S(=O)(=O)N4CCCC4)cc32)c1 | 8.65%
Cc1cc(Cl)ccc1NC(=O)CSc1nnc(Cc2cccs2)n1Cc1ccco1 | -6.89%
CCCN(CC(=O)Nc1ccccc1C)C(=O)COc1ccc2c(c1)CCC2 | 7.65%
CCCCCc1cc(=O)oc2c(C(CCN3CCCC(C)C3)c3ccc(OC)cc3)c(OC)cc(OC)c12 (stereo not shown) | 14.7%
O=C(NCc1ccco1)c1scc2c1OCCO2 | 6.64%
COc1cc(OC)cc(C(C)=O)c1 | 14.7%
Cc1ccc(-n2cccc2C(=S)N=P(N(C)C)(N(C)C)N(C)C)cc1 | 7.02%
CCOc1ccccc1Oc1c(C)oc2cc(OC(=O)N3CCOCC3)ccc2c1=O | 8.54%
CC1CC(C)CN(C(=O)CCCn2c(=O)c3cccn3c3cccnc32)C1 (stereo not shown) | 4.63%
COc1ccc2c(c1OC)C(=O)N1c3cccc(Cl)c3C(=O)OC21 (stereo not shown) | -0.369%
Cc1c(CNCCC2=CCCCC2)c(C(=O)O)c(C)n1Cc1ccccc1 | -0.881%
CCOC(=O)c1ccc(N2C(=O)CC(N3CCC(Nc4ccc(F)cc4)CC3)C2=O)cc1 (stereo not shown) | 8.25%
COc1ccc(CN(C)CC2CCCN(CCc3ccccc3C)C2)cc1O (stereo not shown) | 11.6%
O=C(COc1ccc(Cl)cc1Cl)N1CCCC1 | 10.7%
COc1cccc(NC(=O)CN(C)C(=O)COc2ccccc2Cc2ccccc2)c1 | 4.22%
CCOc1ccccc1N1CC(C(=O)Nc2ccccc2N2CCCC2)CC1=O (stereo not shown) | 20.7%

Structure (SMILES) | hERG current change (%, negative = inhibition) at 1uM
COCC(=O)Nc1ccc(N2CCCC2)c(S(=O)(=O)Nc2ccccc2OC)c1 | 4.22%
CCn1c(=NC(=O)c2cccc(N3C(=O)CCC3=O)c2)sc2c(OC)ccc(OC)c21 | 11.5%
Cl.Cn1c(=N)n(CC(O)c2ccccc2)c2ccccc21 (stereo not shown) | -11.5%
Cc1cccc(N2CCN(S(=O)(=O)c3c(C)nc4scc(C)n4c3=O)CC2)c1C | 9.59%
CCn1nnnc1Oc1ccc(Cl)cc1 | 7.27%
Cc1ccc2c(CSc3nnc(C4CC4)n3N)cc(=O)oc2c1C | 6.52%
CCOc1ccc(OCCC(=O)N2CCc3cc(OC)c(OC)cc3C2)cc1 | 1.01%
CC(C)(C)NC(=O)CSc1nc2[nH]ncc2c(=O)[nH]1 | 12.1%
Cc1ccc(-c2nn(-c3ccccc3)cc2C(=O)NCC(c2cccs2)N2CCOCC2)cc1 (stereo not shown) | 11%
O=C(/C=C/c1cccc([N+](=O)[O-])c1)N1CCN(c2ccc(F)cc2)CC1 | -20%
CCCCn1c(N)c(N(CC)C(=O)C2=COCCO2)c(=O)[nH]c1=O | 3.9%
COc1cc(C(=O)Nc2ccc(C)c(S(=O)(=O)N(C)C)c2)ccc1OCC(=O)N1CCOCC1 | 11.8%
Cc1ccc(C(=O)Nc2ncc(C)s2)o1 | 3.8%
CCOc1ncccc1C(=O)NNC(=O)c1cccc(S(=O)(=O)Nc2ccc(OC)cc2)c1 | 10.9%
Cc1cc(C)cc(NC(=S)N2CCN(Cc3ccccc3)CC2)c1 | 12.2%
C=CCN1C(=O)/C(=C2/Sc3ccc(OC)cc3N2C)SC1=Nc1ccccc1 | 4.59%
COc1cc(NC(=O)CSc2ncnc3sc4c(c23)CCC(C)C4)c(C(=O)O)cc1OC (stereo not shown) | 17.6%
FC(F)(F)c1cc(C(F)(F)F)n2nc(-c3sccc3-n3cccc3)cc2n1 | 14.3%
O=C(NC(=S)Nc1ccc(Cc2ccncc2)cc1)c1ccc(F)cc1 | 13.8%
COC(=O)CC1C(=O)NCCN1C(=O)NC1CCCCC1 (stereo not shown) | 7.21%
Cc1cc(C)c(NC(=O)COC(=O)/C=C/c2cccs2)c(C)c1 | 9.07%
CCOc1ccc(NC(=O)CN(C)C(=O)C2CCN(c3ncnc4sc(C)c(C)c34)CC2)cc1OCC | -6.14%

Structure (SMILES) | hERG current change (%, negative = inhibition) at 1uM
CC(=O)NC(Cc1ccc(C(C)C)cc1)C(=O)NC1CCN(c2nc(C)cc(C)n2)CC1 (stereo not shown) | 9.44%
Br.CCCCC1CC(CSC(=N)N)OC1=O (stereo not shown) | 9.2%
Cc1ccc(OCC(=O)N2N=C(c3cccnc3)CC2(O)C(F)(F)F)cc1C (stereo not shown) | 12.8%
CN(Cc1ccco1)c1ncnc2ccc(-c3ccc4c(c3)OCO4)cc12 | 17.6%
COc1cc(/C=N\NC(=O)c2sc(N)nc2C)cc(OC)c1OC | 6.17%
Cc1c(C#N)c(NC(=O)c2ccccc2)n(Cc2ccccc2)c1C | -1.54%
CCCN1CCN(C(=O)c2oc3c(Cl)cccc3c2C)CC1 | -0.0965%
Cc1nc2cc(C(=O)OCC(=O)Nc3ccc(C#N)cc3)ccc2n1-c1ccccc1 | 9.44%
Oc1ccccc1C1OCC2(CO1)COC(c1ccccc1O)OC2 (stereo not shown) | -0.729%
S=C(Nc1cccnc1)NC1CCCCCCC1 | 4.29%
O=C(Nc1ccccc1)Nc1ccc(Br)c(Cl)c1 | 9.84%
COc1cc(/C=C/c2nc3ccc([N+](=O)[O-])cc3s2)ccc1OCC(=O)O | 11.4%
COc1ccc([N+](=O)[O-])cc1NC(=S)NC(NC(C)=O)C(Cl)(Cl)Cl (stereo not shown) | 10.4%
CC(NC(=O)C1C2C=CC(C2)C1C(=O)O)c1ccccc1 (stereo not shown) | 3.81%
COc1ccc(CNc2nc(NCc3ccc(OC)c(OC)c3)n(C(=O)c3cccs3)n2)cc1OC | 13.1%
O=C(CSc1nnc(-c2ccc(F)cc2)o1)N1CCCC1 | 0.128%
CC1(C)C2CC=C(CN3CCOCC3)C1C2 (stereo not shown) | 9.52%
COc1ccc(C2CC(c3cc(Br)ccc3F)n3nnnc3N2)cc1 (stereo not shown) | 2.87%
Cc1ccc(NC(=O)Nc2cnccn2)cc1C | 12.3%
CN1CCN(NC(=O)c2ccc(Br)s2)CC1 | 13.5%
COc1cc(OC)nc(Oc2ccc(NC(C)=O)cc2)n1 | 7.98%
CCOc1ccc2nc(Cl)c(C3CC(c4ccccc4)=NN3C(=O)c3cccs3)cc2c1 (stereo not shown) | 2.49%
